Drawing on the RNAGym collection of RNA variant scans (doi:10.7554/elife.90254), this text covers self-cleavage for 56 variants.

To fix the notation:
B1: LINE1-mini (parent)
chain: GGCAGAGCUCAACACAGCGUGGCAAAGUGGCUGUGGCUAGACUGCC

Read counts are not given, so values of variants with three or more changes are uncertain.

In the data set the parent is B1. The data set is described as follows: self-cleavage, relative activity (ratio to wild type); higher = more cleavage; in vitro, sequencing; the parent is a self-cleaving ribozyme.
On to GGCAGAGAUCAAGACAGCGUGGCAAAGUGGCGGUGGAUAGACUGCC [C8A C13G U32G C37A], for which the self-cleavage amounted to 0.26.

Turning to GGCAGAGAUCAAGACAGCGUGGCAAAGUGGCUGUGGCUAGACUGCU [C8A C13G C46U], the self-cleavage amounted to 0.67.

Turning to GGCAGAGAUCAACAAAGUGUAGCAAAGUGGCUGUGGCUAGCCUGCC [C8A C15A C18U G21A A41C], the self-cleavage was 0.2.

As to GGCAGAGAUCAACCCAGCGUGGCAAAAUGGCUGUGGCUAGAGUGCC [C8A A14C G27A C42G], the self-cleavage was found to be 0.14.

In the case of GGCAGAGAUCAACUCCGCGUGGCAAAGUGGCUGUGGCUAGAUUGCC [C8A A14U A16C C42U], the self-cleavage was 0.23.

For the variant GGCAGAGAUCAACACAGAGUGGCACAGUGGCUGUGGCUAGACUCAC [C8A C18A A25C G44C C45A], the self-cleavage was 0.03.

Turning to GGCAGAGAUGAACACGCCGUGGCAAAGUUGCUGUGGCUAGACUGCC [C8A C10G A16G G17C G29U], the self-cleavage was 0.02.

As to GGCAGAGAUAAACACAGCGCGGCAAAGUGGCUGUGGCUAGACAGCC [C8A C10A U20C U43A], the self-cleavage was found to be 0.02.

As for GGCAGAGAUCAACACAGUGUGGGAAAGUGGCUGUGGCUAGAAUGAC [C8A C18U C23G C42A C45A], the self-cleavage turned out to be 0.56.

As to GGCAGAGAUCAACACAGGGUGGCAAAGUGGCUGUGGCUAGACUGCU [C8A C18G C46U], the self-cleavage turned out to be 0.1.

For the variant GGCAGAGAUCAUCACAUCGUGGCAUAGUUGCUGUGGCUAGACUGCU [C8A A12U G17U A25U G29U C46U], the self-cleavage came to 0.49.

For the variant GGCAGAGAUCAACGCAGUGUGGCAAAGUGGCUGUGGCUAGACUGCC [C8A A14G C18U], the self-cleavage was 0.15.

As for GGCAGAGAUCAACGCAGCGUGGCAAAGUGGCUGUGGAUAGACUGCC [C8A A14G C37A], the self-cleavage stood at 0.74.

For the variant GGCAGAGAUCAACACAGAGUCGCAAAGUGGCUGUGGCUAGACUGCC [C8A C18A G21C], the self-cleavage is 0.12.

With GGCAGAGAUCAAUACACCGUGGCAAAGUGGCUGUGGCUAGACCGCC [C8A C13U G17C U43C], the self-cleavage worked out at 0.15.

For GGCAGAUCCCAACACAUCGUGGCAAAGUGGCUGUGGCUAGACUGCC [G7U U9C G17U], the self-cleavage came to 0.05.

As to GGCAGAUCGCAACACAGCGUGGCAAAGUGGCUGUGGCUAAAUUGGC [G7U U9G G40A C42U C45G], the self-cleavage was 0.09.

For GGCAGAGAUCAACAAAGCGUGGCAAAGUGACUGUGGCUAGACUGCC [C8A C15A G30A], the self-cleavage is 0.63.

As to GGCAGAGAUCCACACAGCGUGGCAAAGUGGCUGUGGCUAAACUGCC [C8A A11C G40A], the self-cleavage is 0.02.

On to GGCAGAGAUCAACACAGCGUGGCAGAGUGGCUCAGGCUAGACUGCC [C8A A25G G33C U34A], for which the self-cleavage came to 0.08.

Regarding GGCAGAGAUCAACACAGCGUGGCUAAGAGGCUGAGGCUAGACUGCC [C8A A24U U28A U34A], the self-cleavage is 0.22.

On to GGCAGAGAUCAAAACAGCGUGGCAAAGUCGCUGUGGCUCGUCCGCC [C8A C13A G29C A39C A41U U43C], for which the self-cleavage is 0.02.

Consider GGCAGAGAUCAACACGGCGUGGCAAAGUGGCUGCGGCUAGACUGCC [C8A A16G U34C], for which the self-cleavage came out at 0.05.

GGCAGAGAUAAACAUAGCGUGGCAAAGUUGCUGUGGCUAUACUGCC [C8A C10A C15U G29U G40U]: the self-cleavage is 0.06.

Consider GGCAGAGAUCAACACGGCGUGGCAAACUGGCUGUGGCUAGACUACC [C8A A16G G27C G44A], for which the self-cleavage turned out to be 0.16.

For the variant GGCAGAUCUCAACACAGCGUGGCAAAGGGCCUGUUGCUAUAUUGCC [G7U U28G G30C G35U G40U C42U], the self-cleavage worked out at 0.28.

As to GGCAGAUCUCAACACAGCGUGGCAAAGUGGCUGAGGAUAGACUGCC [G7U U34A C37A], the self-cleavage is 0.02.

Take GGCAGAGAUCAACACGGCGUGGAAAAGUGGCUGUGGCUAGAGUGCC [C8A A16G C23A C42G]: the self-cleavage is 0.17.

In the case of GGCAGAUCUCAACACAGCGGGGCAAAGUUGCUAUGGCUCGACUGCC [G7U U20G G29U G33A A39C], the self-cleavage was 0.05.

With GGCAGAGAUCAACACAGCGUGGCCAAGUGGCUGUGGCUAAACUGCC [C8A A24C G40A], the self-cleavage is 0.15.

With GGCAGAGAUCAACCCAGCGUGGCAGAGUGGCUGUGGCUAGACUGCC [C8A A14C A25G], the self-cleavage turned out to be 0.11.

With GGCAGAGAUCAACAAAGCGUGGCAAAGUCGCUGUGGCUAGACUGCC [C8A C15A G29C], the self-cleavage was 0.93.

Take GGCAGAGAUUAACACAGCGUGGAAAAGUGGCUGUGGCUAGACUGCC [C8A C10U C23A]: the self-cleavage was 0.12.

As to GGCAGAGAUGAACACAGCGUGGCAAAGUGGCUGUGGCUAGACUUCC [C8A C10G G44U], the self-cleavage came to 0.05.

As to GGCAGAUCGCCACACAGCGUGGCAAAGUGGCUGUGGCUAGAAUGCC [G7U U9G A11C C42A], the self-cleavage turned out to be 0.02.

Turning to GGCAGAGAUCUACACAGCGUGGCAAAGUGCCUGUGGCGAGACUGCC [C8A A11U G30C U38G], the self-cleavage worked out at 0.03.

On to GGCAGAGAUCAACACAGCGUGGCAAAGUGGCUGUGGCUCGACUGCU [C8A A39C C46U], for which the self-cleavage was found to be 0.05.

As to GGCAGAUCUCAACACAGCGUGGCAAAGUGGCUGGGGUUAGCCAGCC [G7U U34G C37U A41C U43A], the self-cleavage worked out at 0.02.

Take GGCAGAGAUAAACACAGCGUGGCAAAGUUGCUGUGGCUAGACUGCC [C8A C10A G29U]: the self-cleavage worked out at 0.02.

With GGCAGAUCUCAACACAGCGGGGCAAAGUGGCGGUGUGUUGACUGCC [G7U U20G U32G G36U C37G A39U], the self-cleavage is 0.01.

On to GGCAGAGAUGAAGACAGCGUGGAAAAGUAGAUGUGGAAAGACUGCC [C8A C10G C13G C23A G29A C31A C37A U38A], for which the self-cleavage is 0.02.

In the case of GGCAGAGAUCAACACUGCGUGGCAAAGUGGCUGUGCCUAGACUGCC [C8A A16U G36C], the self-cleavage was 0.14.

As to GGCAGAGAUCCACAAAGCGUGGCAAAGUGGCUGUGGCUAGACUGCC [C8A A11C C15A], the self-cleavage amounted to 0.02.

As to GGCAGAGAUCAACACAGGGUGGCUAAGUGGCUGUGGCUAGACUGCC [C8A C18G A24U], the self-cleavage worked out at 0.15.

Consider GGCAGAGAUCAGCACAGCGUGGCAAAGUGGCUGUGGCUAGACUGCU [C8A A12G C46U], for which the self-cleavage stood at 0.11.

For the variant GGCAGAGAUCAACACUGCGUGGCAAAGUGGCUGUGGCUAGACUGCU [C8A A16U C46U], the self-cleavage was determined as 0.39.

As for GGCAGAGAUCAACCCAGCGUGGCAAAGUCGCCGUCGCUAGACUGCC [C8A A14C G29C U32C G35C], the self-cleavage came out at 0.07.

With GGCAGAGAUCAACAUAGCGUGGCAACGUGGCUGUGUCUAGACUGCC [C8A C15U A26C G36U], the self-cleavage worked out at 0.59.

As to GGCAGAGAUAAACACAGCGUGGCAAAGUGGCUGCGGCUAGACUGCC [C8A C10A U34C], the self-cleavage was 0.01.

In the case of GGCAGAGAUCAACCCAGCGUGGCAAAGUGGCUGUGGCUAGUCUGCC [C8A A14C A41U], the self-cleavage is 0.08.

Take GGCAGAUCUCAACACAGCGUGGCAAAGAGGCUGUGUCUAGACUGCC [G7U U28A G36U]: the self-cleavage was 0.03.

Regarding GGCAGAGAUCUACACAGCGUGUCACAGUGGAUGUGGCUAGACUGCC [C8A A11U G22U A25C C31A], the self-cleavage amounted to 0.03.

Turning to GGCAGAUCUCAACACAGCGUGGCAAAGUGGCUGUGGCUAGACAGCG [G7U U43A C46G], the self-cleavage is 0.03.

For the variant GGCAGAUCUCAACACAGCGAGGAAAAGUGGCUGUGGCUAGACUGCC [G7U U20A C23A], the self-cleavage was 0.02.

In the case of GGCAGAGAUAAACACAGCAUGGCAAAGUGGCUGUGGCUAGACUGCC [C8A C10A G19A], the self-cleavage came out at 0.01.

In the case of GGCAGAGAUCAACAGAGCGUGGCAAAGUGGCUGUGGCUAGACUGCG [C8A C15G C46G], the self-cleavage was found to be 0.09.
